Potency data for two molecules are collected here from PubChem BioAssay (Tox21).

SMILES strings stand for the structures. Results filed as inconclusive are left out. Calls come from the whole dose curve; as a rule, active = well fitted curve in the direction sought with a large enough effect in the repeat runs; inconclusive = weak or mixed curves; inactive = no such curve, though single readings can be large; an effect the other way counts as inactive or inconclusive. More than one record can exist for a structure, and the calls need not agree. The source holds more than one record for some entries. The list is limited to them. There may be further records. Values given together are repeats across runs, samples, wells, individuals or studies. Records carry a tag for their origin. The letters are not those of the source and start again with each entry.

Assay [1] can be described thus: A CellTox Green Cytotoxicity Assay to monitor cytotoxicity in HEK293 cells - 24 hour (AID 1224875). Note: nearly all actives have a fitted effect of over 45% in size. A digest of the protocol: (§1)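 Homogeneous no-lysis format: HEK293 cell suspension mixed with CellTox Green reagent, seeded, incubated 5 h at 37 C/5% CO2, then dosed by pintool with compound in DMSO.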
Assay [2] is described as follows: A CellTox Green Cytotoxicity Assay to monitor cytotoxicity in HEK293 cells - 16 hour (AID 1224888). Note: nearly all actives have a fitted effect of over 35% in size. A digest of the protocol:
as §1

The nature of assay [3]: qHTS assay to identify small molecule antagonists of the thyroid receptor (TR) signaling pathway (AID 743065). Note: nearly all actives have a fitted effect of over 55% in size. A digest of the protocol:
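Antagonism measured as loss of luciferase signal in GH3 cells stably carrying a TRE-luciferase reporter, co-treated with compound and T3 (1 nM final) for 23.5 h at 37 C. Viability was read in the same well by CellTiter-Fluor.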
On the technique in general: In qHTS, concentration-response curves come from the screen itself.
Potency is the fitted concentration of half-maximal effect.

`CCCCCCCCCCO`: the Potency entry in assay [1] is “active: 24.6 µM [sample A] and inactive [sample B]”; in assay [2], “active: 43.8 µM [sample A] and inactive [sample B]”.
Consider `Cc1ccc(C(C)C)c(O)c1`, for which the Potency entry in assay [3] was “inactive [sample A] and active: 54.5 µM [sample B]”.
